Source: PubChem BioAssay AID1458 (National Center for Advancing Translational Sciences (NCATS), 2008)
Values joined by “and” are separate entries in the source; they are usually repeats but may differ in a detail not shown here. Equal values may be shown once. Screen size: about 210,000 compounds; about 5,900 (2.8%) were called active. The shares of active, inactive and inconclusive entries below differ from those in the screen. Calls come from the whole dose curve; as a rule, active = well fitted activation curve with a large enough effect; inconclusive = small, poorly fitted or top-dose-only effect; inactive = no such curve, though single readings can be large or run the other way. Potencies beside an inconclusive call are fits to weak or partial responses and may not hold up.

Experiment: qHTS Assay for Enhancers of SMN2 Splice Variant Expression; note: nearly all actives have a fitted effect of over 55% in size; for activity change, positive = activation: % of control where 0% means no effect
Details: HEK293 SMN2-luciferase splicing reporter, luminescence, 30-36 h; activity change, positive = activation: at 46.1 µM (top of the series)
Source text: NIH Chemical Genomics Center [NCGC] NIH Molecular Libraries Probe Production centers Network [MLPCN] MLPCN Grant: R03 MH084179-01 Assay Submitter (PI): Elliot Androphy NCGC Assay Overview: Spinal muscular atrophy (SMA) is caused by insufficient levels of the survival motor neuron protein SMN. The SMN locus on chromosome 5q13 contains two inverted copies of SMN called SMN1 and SMN2 which are 99% identical at the amino acid level. SMN1 is a fully functional protein and SMN2 skips exon 7 90% of the time. Skipping of exon 7 produces non-functional protein product. 10% of the SMN2 protein includes exon 7 and is fully functional. In the SMA disease state, mutations in the SMN1 locus are the cause of the disease state. Because only 10% of SMN2 is of the fully functional form, it is not sufficient to overcome the deficiency produced by the loss of the SMN1 product. A therapy that either increase the amount of SMN2 product made or to increase the inclusion of exon 7 has been proposed for the treatment of SMA. We have designed an assay to identify small molecules that can increase the amount of functional SMN2 product by appending a luciferase reporter gene after the native SMN2 gene, such that inclusion of exon 7 in the expressed product places the luciferase sequence in frame, thus generating functional luciferase enzyme.
NCGC Assay Protocol Summary: This screen utilizes a luciferase reporter gene assay, combining the promoter and splicing based cassettes in tandem with the major portion of the native SMN2 cDNA, and then transfected into HEK293 cells. Compounds that increase luciferase signal presumably enhance expression of the functional SMN2 splice variant. Passaging media contained DMEM w/ glutamax (+phenol red) 10% FCS, 1x pen/strep, 200 ug/ml hygro, 1x sodium pyruvate. Assay media contained DMEM w/ glutamax (-phenol red) 10% FCS, 1x pen strep, 1x pyruvate Sequence, Parameter, Value, Description (1) Cells, […], 2000 cells/well, 1536 TC treated White solid bottom plate (2) Time, 10-12 hours, 37C 5% CO2 (3) Compound, 23 nl, MLSMR Library (4) Control Compound, 23 nL, Sodium butyrate st 4.5mM (final) conc (5) Time, 30-36 hours, 37C 5% CO2 (6) Reagent, 3 ul, One Glo (TM) from Promega (7) Time, 5-15 minutes, Room temp (8) Detector, Viewlux: luminescent read, 60 second integration, high speed 2x binning Keywords: Spinal muscular atrophy, SMA, SMN2, high throughput screening, MLSMR, MLPCN, NIH Roadmap, qHTS and NCGC
Potency is the fitted concentration of half-maximal effect; tags give direction and shape of the fitted curve.

Compound	Potency	activity change, positive = activation
O=C(NCCCn1ncc2ccccc21)c1cc(COc2c(F)cccc2F)on1	inconclusive: 3.16 µM [activator, single point]	–
Cc1nc2nc(SCC(=O)NCc3ccccc3)nn2c(C)c1Cc1ccccc1Cl	–	inactive: -12.4%
CCOC(=O)C1=C(CSCC(=O)OC)NC(=O)NC1c1cc(C)ccc1C (stereo not drawn)	inconclusive: 35.5 µM [activator, single point]	–
CC(=O)NCCOc1nc(N(C)C)nc(N(C)C)n1	inconclusive: 2.82 µM [activator, partial curve]	–
CCN(CC)CCOC(=O)c1cc(Cl)c(N)cc1OC	inactive and inconclusive: 14.1 µM [activator, single point]	–
COc1ccc(-c2nc(-c3ccc(NC(=O)c4ccc(Br)o4)cc3)no2)cc1OC	–	inactive: 3.85%
Cc1nc(CCNC(=O)Cc2ccc(Cl)cc2)cs1	inconclusive: 10 µM [activator, partial curve]	–
CCn1nccc1C(=O)Nc1ccc(Cl)c(Cl)c1	inconclusive: 7.08 µM [activator, full curve, poor fit]	–
CCOc1ccc(N=Nc2c(C)noc2C)cc1	–	inactive: 15.7%
COc1cc2nc(SCC(N)=O)n(CCC3=CCCCC3)c(=O)c2cc1OC	inconclusive: 14.1 µM [activator, partial curve, poor fit]	–
Cc1coc2c(C)c3oc(=O)c(CC(=O)N4CCCCC4)c(C)c3cc12	–	inactive: 5.22%
Cc1nn(C(C)C(=O)NCCCc2ccccc2)c(=O)c2cc3occc3n12 (stereo not drawn)	–	inactive: 12.6%
COC(=O)c1ccc(NC(=O)Cc2coc3cc(C)ccc23)cc1	inconclusive: 35.5 µM [activator, single point]	–
COc1cccc2c1Oc1nc(-c3ccccc3)nc(SCC(=O)N3CCCCC3)c1C2	–	inactive: 1.67%
CCCCOc1ccc(-c2cc(C(=O)NNC(=S)NCC)c3ccccc3n2)cc1	active: 3.16 µM	–
CC1CCN(S(=O)(=O)c2ccc3ncn(CC(=O)Nc4ccccc4C(F)(F)F)c(=O)c3c2)CC1	–	inactive: 5.87%
COC(=O)CC1Oc2ccccc2N(Cc2ccc(C)cc2)C1=O (stereo not drawn)	inconclusive: 6.31 µM [activator, partial curve, poor fit]	–
COc1ccc(C(=O)OCC(=O)Nc2ccc(OC(F)F)cc2)c(OC)c1	inconclusive: 2 µM [activator, partial curve, poor fit]	–
O=c1c(-c2ccc3c(c2)OCCO3)coc2cc(O)cc(O)c12	active: 6.31 µM	–
CCCCOC(=O)Nc1cccc(C(=O)OCC)c1	inconclusive: 1.58 µM [activator, partial curve, poor fit]	–
COC(=O)c1sccc1-c1ccc(/C=N/OCc2c(Cl)cccc2Cl)o1	inconclusive: 0.0126 µM [activator, full curve, poor fit]	–
COc1cccc2cc(NC(=O)C3CCCCC3)c(=O)oc12	inconclusive: 5.01 µM [activator, partial curve, poor fit]	–
Cc1cccc(-c2nc3c(cnn3-c3ccccc3)c(=O)n2-c2cccc(Cl)c2)c1	–	inactive: -4.86%
Cn1cc(CNC(=O)COc2ccc(Cl)cc2Cl)cn1	inconclusive: 4.47 µM [activator, partial curve, poor fit]	–

Compound	Potency	activity change, positive = activation
CCOC(=O)C1CCN(c2cc3c(cc2NC(=O)c2ccc(OC)c(OC)c2)n(C)c(=O)n3C)CC1	–	inactive: 2.48%
O=C(c1ccc(-c2ccc([N+](=O)[O-])cc2)o1)N1CCCCC1	inconclusive: 0.251 µM [activator, partial curve]	–
OCc1nc2ccccc2n1C/C=C/c1ccccc1	–	inactive: -29%
O=C(NCc1cccs1)c1nn(-c2ccccc2)nc1CO	–	inactive: -42.5%
CS/C(=N\S(=O)(=O)c1cccs1)NC(=O)CSc1nc2ccccc2s1	inconclusive: 22.4 µM [activator, single point]	–
Cn1c(O)c(C(C#N)=C2N=c3ccccc3=N2)c2ccccc21	–	inactive: 5.48%
N#C/C(=C/c1ccc(N2CCCCC2)o1)C(=O)Nc1ccc(Cl)cc1	active: 3.16 µM	–
Cc1ccc(S(=O)(=O)Nc2nc3ccc(S(=O)(=O)N4CCCC4)cc3s2)cc1	inconclusive: 2 µM [activator, partial curve]	–
COc1ccc(S(=O)(=O)NC2CC(C)(C)NC(C)(C)C2)c(C)c1C	inconclusive: 35.5 µM [activator, partial curve, poor fit]	–
Cc1ccccc1CSCCC(=O)NCCC1=CCCCC1	–	inactive: 16.3%
Oc1ccc(-c2nccc(-c3cccs3)n2)cc1	inconclusive: 35.5 µM [activator, single point]	–
O=S(=O)(c1ccccc1)N1N=C(c2cccs2)CC1c1ccc(Br)cc1 (stereo not drawn)	inconclusive: 0.398 µM [activator, single point]	–
CCOC(=O)c1ccc(N/C=C2/CCCC(C)C2=O)cc1 (stereo not drawn)	inconclusive: 31.6 µM [activator, single point]	–
COc1ccc(NC(=O)c2ccc3snnc3c2)cc1	active: 12.6 µM	–
O=c1oc(Nc2ccccc2Cl)nc2ccccc12	inconclusive: 10 µM [activator, partial curve]	–
CCOc1ccc(-c2cc(NC(=O)c3c(F)cccc3F)c(C(=O)OC)s2)cc1	–	inactive: 13.9%
O=C(c1cc2c(s1)-c1ccccc1OC2)N1CCc2ccccc2C1	active: 20 µM	–
Cc1sc2ncnc(SC(C)C(=O)N3c4ccccc4Sc4ccccc43)c2c1C (stereo not drawn)	inconclusive: 1.12 µM [activator, partial curve, poor fit]	–
COc1ccccc1CNCC(=O)N1CC(=O)Nc2ccccc21	–	inactive: 22.9%
O=C1c2ccccc2C(=O)C1c1nccc2ccccc12	active: 0.631 µM	–
O=C(N/N=C/c1cccnc1)c1ccc2c(c1)OCCO2	active: 8.91 µM	–
O=C(Nc1nc2ccccc2[nH]1)c1ccccc1[N+](=O)[O-]	active: 12.6 µM	–
CCOC(=O)/C(C#N)=C1/C=CN(c2ccc(C)cc2)C=N1	inconclusive: 22.4 µM [activator, partial curve, poor fit]	–
Cc1ccc(C2=Nc3ccccc3NC(C)(c3ccc(C)o3)C2)o1 (stereo not drawn)	inconclusive: 4.47 µM [activator, single point]	–
